Tested on: adult patients with uncontrolled gout
Test: Open-label study of pegloticase with MTX: serum uric acid observed values and change from baseline
Type: in vivo, human
Excerpt: KXX treatment typically is monitored using regular determination of the patient's SUA levels. A reduction in the serum uric acid level relative to the SUA in the patient before KXX treatment may generally be indicative of successful treatment with KXX, alone, or co-administered with an immunosuppressive agent or therapy, such as MTX, as described herein. Collection and measurement of a patient's serum uric acid levels are known to those of skill in the art. In some embodiments, the patient's serum uric acid levels are assayed before each KXX therapy. In some embodiments, any suitable method for collecting appropriate samples and methods of measuring or quantifying uric acid levels may be used in accordance with the disclosure.
Criteria for Evaluation: Efficacy was assessed by SUA levels, tender and swollen joint counts, patient and physician global assessments of gout, joint pain, and DECT.
Patients were administered oral MTX (15 mg/week) and folate (1 mg/day) 4 weeks prior to the first pegloticase infusion (Day 1) and throughout the pegloticase treatment period. Blood was drawn prior to each infusion to measure sUA level, monitor clinical parameters, and examine for ADA development. All patients followed typical IR prophylaxis protocols (fexofenadine one day before and the morning of each infusion and acetaminophen and IV corticosteroid the morning of each infusion). […] The primary study outcome was the proportion of responders, defined as sUA<6 mg/dL for at least 80% of the time during month 6 (weeks 20, 22, and 24). All analyses were performed on a modified intent-to-treat population, defined as patients who received ≥1 pegloticase infusion.

[1] = Month 6 sUA responders, Week 46 - Pre-Infusion, n=2
[2] = Month 6 sUA responders, Week 48 - Post-Infusion, n=3
[3] = Month 6 sUA responders, Week 48 - Pre-Infusion, n=2
[4] = Month 6 sUA responders, Week 50 - Post-Infusion, n=3
[5] = Month 6 sUA responders, Week 50 - Pre-Infusion, n=2
[6] = Month 6 sUA responders, Week 52/ET, n=2

pegloticase
-8.33 mg/dL: sUA Change from Baseline, Mean (Week 10 - Pre-Infusion)
-8.20 mg/dL: sUA Change from Baseline, Mean (Week 8 - Pre-Infusion)
(85.7%): sUA < 6 mg/dL, % (Week 4 - Pre-Infusion)
-8.31 mg/dL: sUA Change from Baseline, Mean (Week 6 - Pre-Infusion)
(88.9%): sUA < 6 mg/dL, % (Week 36 - Pre-Infusion)
-7.54 mg/dL: sUA Change from Baseline, Mean (Week 4 - Pre-Infusion)
(92.9%): sUA < 6 mg/dL, % (Week 2 - Pre-Infusion)
1.08 mg/dL: sUA observed, mean (Week 8 - Pre-Infusion)
-8.86 mg/dL: sUA Change from Baseline, Mean (Week 2 - Post-Infusion)
0.95 mg/dL: sUA observed, mean (Week 10 - Pre-Infusion)
1.61 mg/dL: sUA observed, mean (Week 4 - Pre-Infusion)
0.30 mg/dL: sUA observed, mean [1] | sUA observed, median [1] | sUA observed, median [2] | sUA observed, mean [3] | sUA observed, median [3] | sUA observed, median [4] | sUA observed, mean [5] | sUA observed, median [5] | sUA observed, mean [6] | sUA observed, median [6] | sUA observed, mean (Week 1) | sUA observed, median (Week 1) | sUA observed, mean (Week 2 - Post-Infusion) | sUA observed, median (Week 2 - Post-Infusion) | sUA observed, median (Week 2 - Pre-Infusion) | sUA observed, mean (Week 4 - Post-Infusion) | sUA observed, median (Week 4 - Post-Infusion) | sUA observed, median (Week 4 - Pre-Infusion) | sUA observed, mean (Week 6 - Post-Infusion) | sUA observed, median (Week 6 - Post-Infusion) | sUA observed, median (Week 6 - Pre-Infusion) | sUA observed, mean (Week 7) | sUA observed, median (Week 7) | sUA observed, mean (Week 8 - Post-Infusion) | sUA observed, median (Week 8 - Post-Infusion) | sUA observed, median (Week 8 - Pre-Infusion) | sUA observed, mean (Week 10 - Post-Infusion) | sUA observed, median (Week 10 - Post-Infusion) | sUA observed, median (Week 10 - Pre-Infusion) | sUA observed, mean (Week 12 - Post-Infusion) | sUA observed, median (Week 12 - Post-Infusion) | sUA observed, mean (Week 12 - Pre-Infusion) | sUA observed, median (Week 12 - Pre-Infusion) | sUA observed, mean (Week 14 - Post-Infusion) | sUA observed, median (Week 14 - Post-Infusion) | sUA observed, mean (Week 14 - Pre-Infusion) | sUA observed, median (Week 14 - Pre-Infusion) | sUA observed, mean (Week 16 - Post-Infusion) | sUA observed, median (Week 16 - Post-Infusion) | sUA observed, mean (Week 16 - Pre-Infusion) | sUA observed, median (Week 16 - Pre-Infusion) | sUA observed, mean (Week 18 - Post-Infusion) | sUA observed, median (Week 18 - Post-Infusion) | sUA observed, mean (Week 18 - Pre-Infusion) | sUA observed, median (Week 18 - Pre-Infusion) | sUA observed, mean (Week 20 - Post-Infusion) | sUA observed, median (Week 20 - Post-Infusion) | sUA observed, mean (Week 20 - Pre-Infusion) | sUA observed, median (Week 20 - Pre-Infusion) | sUA observed, mean (Week 22 - Post-Infusion) | sUA observed, median (Week 22 - Post-Infusion) | sUA observed, mean (Week 22 - Pre-Infusion) | sUA observed, median (Week 22 - Pre-Infusion) | sUA observed, mean (Week 24 - Post-Infusion) | sUA observed, median (Week 24 - Post-Infusion) | sUA observed, mean (Week 24 - Pre-Infusion) | sUA observed, median (Week 24 - Pre-Infusion) | sUA observed, mean (Week 26 - Pre-Infusion) | sUA observed, median (Week 26 - Pre-Infusion) | sUA observed, mean (Week 28 - Pre-Infusion) | sUA observed, median (Week 28 - Pre-Infusion) | sUA observed, mean (Week 30 - Pre-Infusion) | sUA observed, median (Week 30 - Pre-Infusion) | sUA observed, mean (Week 32 - Post-Infusion) | sUA observed, median (Week 32 - Post-Infusion) | sUA observed, mean (Week 32 - Pre-Infusion) | sUA observed, median (Week 32 - Pre-Infusion) | sUA observed, mean (Week 34 - Post-Infusion) | sUA observed, median (Week 34 - Post-Infusion) | sUA observed, median (Week 34 - Pre-Infusion) | sUA observed, mean (Week 36 - Post-Infusion) | sUA observed, median (Week 36 - Post-Infusion) | sUA observed, median (Week 36 - Pre-Infusion) | sUA observed, median (Week 38 - Pre-Infusion) | sUA observed, mean (Week 40 - Pre-Infusion) | sUA observed, median (Week 40 - Pre-Infusion) | sUA observed, mean (Week 42 - Pre-Infusion) | sUA observed, median (Week 42 - Pre-Infusion) | sUA observed, median (Week 44 - Pre-Infusion) | sUA observed, mean (Week 46 - Pre-Infusion) | sUA observed, median (Week 46 - Pre-Infusion)
-8.00 mg/dL: sUA change from baseline, median (Week 4 - Pre-Infusion)
(100%): sUA < 6 mg/dL, % [2] | sUA < 6 mg/dL, % [3] | sUA < 6 mg/dL, % [4] | sUA < 6 mg/dL, % [5] | sUA < 6 mg/dL, % [6] | sUA < 6 mg/dL, % (Week 1) | sUA < 6 mg/dL, % (Week 2 - Post-Infusion) | sUA < 6 mg/dL, % (Week 4 - Post-Infusion) | sUA < 6 mg/dL, % (Week 6 - Post-Infusion) | sUA < 6 mg/dL, % (Week 7) | sUA < 6 mg/dL, % (Week 8 - Post-Infusion) | sUA < 6 mg/dL, % (Week 10 - Post-Infusion) | sUA < 6 mg/dL, % (Week 12 - Post-Infusion) | sUA < 6 mg/dL, % (Week 12 - Pre-Infusion) | sUA < 6 mg/dL, % (Week 14 - Post-Infusion) | sUA < 6 mg/dL, % (Week 14 - Pre-Infusion) | sUA < 6 mg/dL, % (Week 16 - Post-Infusion) | sUA < 6 mg/dL, % (Week 16 - Pre-Infusion) | sUA < 6 mg/dL, % (Week 18 - Post-Infusion) | sUA < 6 mg/dL, % (Week 18 - Pre-Infusion) | sUA < 6 mg/dL, % (Week 20 - Post-Infusion) | sUA < 6 mg/dL, % (Week 20 - Pre-Infusion) | sUA < 6 mg/dL, % (Week 22 - Post-Infusion) | sUA < 6 mg/dL, % (Week 22 - Pre-Infusion) | sUA < 6 mg/dL, % (Week 24 - Post-Infusion) | sUA < 6 mg/dL, % (Week 24 - Pre-Infusion) | sUA < 6 mg/dL, % (Week 26 - Pre-Infusion) | sUA < 6 mg/dL, % (Week 28 - Pre-Infusion) | sUA < 6 mg/dL, % (Week 30 - Pre-Infusion) | sUA < 6 mg/dL, % (Week 32 - Post-Infusion) | sUA < 6 mg/dL, % (Week 32 - Pre-Infusion) | sUA < 6 mg/dL, % (Week 34 - Post-Infusion) | sUA < 6 mg/dL, % (Week 34 - Pre-Infusion) | sUA < 6 mg/dL, % (Week 36 - Post-Infusion) | sUA < 6 mg/dL, % (Week 38 - Pre-Infusion) | sUA < 6 mg/dL, % (Week 40 - Pre-Infusion) | sUA < 6 mg/dL, % (Week 42 - Pre-Infusion) | sUA < 6 mg/dL, % (Week 44 - Pre-Infusion) | sUA < 6 mg/dL, % (Week 46 - Pre-Infusion)
(92.3%): sUA < 6 mg/dL, % (Week 6 - Pre-Infusion)
1.26 mg/dL: sUA observed, mean (Week 2 - Pre-Infusion)
(91.7%): sUA < 6 mg/dL, % (Week 8 - Pre-Infusion) | sUA < 6 mg/dL, % (Week 10 - Pre-Infusion)
-7.28 mg/dL: sUA Change from Baseline, Mean (Week 1)
-8.92 mg/dL: sUA Change from Baseline, Mean (Week 4 - Post-Infusion)
0.91 mg/dL: sUA observed, mean (Week 6 - Pre-Infusion)

Reference: patent publication US20230301999A1, “METHODS OF TREATING GOUT” (Horizon Therapeutics USA, Inc., priority 2020, published 2023)
